From the antibiotic and cytotoxicity screens of Wong et al. (2023)
The list shows a part of the results.

System: S. aureus RN4220
Assay: growth inhibition call (relative growth <= 0.2)
Conditions: 50 µM

Growth inhibition call, inactive:
COC(=O)[C@@H]1CC(=O)N(C(C)C)C1
C[C@@H]1CN([C@H](C)CO)S(=O)(=O)c2ccc(C3=CCCCC3)cc2O[C@@H]1CN(C)Cc1cncnc1
CN(C)C(=O)C[C@H]1C=C[C@@H](NC(=O)C2CCOCC2)[C@@H](CO)O1
COc1cccc(CNC(=O)C[C@H]2C=C[C@@H](NC(=O)C3CCOCC3)[C@@H](CO)O2)c1
COc1ccccc1CN1C[C@@H](C)[C@H](OC)CN(C)C(=O)c2ccc(NC(=O)Nc3ccccc3OC)cc2OC[C@H]1C
C[C@@H]1CN([C@@H](C)CO)C(=O)Cc2cc(NC(=O)Cn3cnnn3)ccc2O[C@H]1CN(C)C(=O)Nc1ccc2c(c1)OCO2
C[C@@H](N)CCCP(=O)(O)O
C[C@@H]1CN([C@H](C)CO)C(=O)c2cccc(NS(=O)(=O)c3cn(C)cn3)c2O[C@@H]1CN(C)S(=O)(=O)c1ccc(F)cc1
C[C@H](CO)N1C[C@H](C)[C@@H](CN(C)Cc2ccc(-c3ccccc3)cc2)Oc2c(NC(=O)C3CC3)cccc2C1=O
C[C@H](CO)N1C[C@H](C)[C@@H](CN(C)C(=O)NC2CCCCC2)Oc2ccc(NC(=O)CCN3CCOCC3)cc2C1=O
C[C@H](CO)N1C[C@H](C)[C@@H](CN(C)Cc2ccc(-c3ccccc3)cc2)Oc2c(NS(=O)(=O)c3cccs3)cccc2C1=O
